These are literature values, as cited in publication PMC9889658, “The structure of MadC from Clostridium maddingley reveals new insights into class I lanthipeptide cyclases” (Frontiers in Microbiology, 2023).

No end group written: not given here.

For this data set the following is noted: ref Garg et al., 2012. The text has this: Alternatively, the β-sheet could be essential for the predicted 4 intertwined rings at the C-terminus of MadA. To predict the rings in maddinglicin RiPPMiner was used ([Agrawal et al., 2017], [2021]). Furthermore, BAGEL4 and RiPPMiner also identified structurally related or sequence similar lantibiotics such as geobacillin I (GeoI; [van Heel et al., 2018]). […] Due to the high similarity, these lantibiotics likely share the same ring architecture (or also similar ring size), which w ...

Regarding “MAKFDDFDLDIVVKKQDDVVQPNVTSKSLCTPGCITGVLMCLTQNSCVSCNSCIRC (also: bicyclic or more (positions not given here)) [GeoI]”, the “stability compared to NisA” value is listed as “higher stability”.
